According to PubChem BioAssay AID488969 (Vanderbilt High Throughput Screening Facility, 2010):
Whole data set: some 110,000 compounds, median “z-score” near -0.1, cut for the highest 2% near 2. The list shows a part of the results.

The compounds below were run against Metabotropic glutamate receptor 8 (Rattus norvegicus) (UniProt P70579) (assay: rat mGluR8 modulators via GIRK flux, primary screen, cell-based, thallium flux, HTS (AID 488969)). Settings: HEK293 rat mGluR8, GIRK (G protein-gated inwardly rectifying potassium channel) thallium flux, FluoZin2; at 10 µM; stronger effect = higher value; submaximal glutamate (EC20) added with thallium.
Chain of UniProt P70579 (P70579 whole entry, looked up): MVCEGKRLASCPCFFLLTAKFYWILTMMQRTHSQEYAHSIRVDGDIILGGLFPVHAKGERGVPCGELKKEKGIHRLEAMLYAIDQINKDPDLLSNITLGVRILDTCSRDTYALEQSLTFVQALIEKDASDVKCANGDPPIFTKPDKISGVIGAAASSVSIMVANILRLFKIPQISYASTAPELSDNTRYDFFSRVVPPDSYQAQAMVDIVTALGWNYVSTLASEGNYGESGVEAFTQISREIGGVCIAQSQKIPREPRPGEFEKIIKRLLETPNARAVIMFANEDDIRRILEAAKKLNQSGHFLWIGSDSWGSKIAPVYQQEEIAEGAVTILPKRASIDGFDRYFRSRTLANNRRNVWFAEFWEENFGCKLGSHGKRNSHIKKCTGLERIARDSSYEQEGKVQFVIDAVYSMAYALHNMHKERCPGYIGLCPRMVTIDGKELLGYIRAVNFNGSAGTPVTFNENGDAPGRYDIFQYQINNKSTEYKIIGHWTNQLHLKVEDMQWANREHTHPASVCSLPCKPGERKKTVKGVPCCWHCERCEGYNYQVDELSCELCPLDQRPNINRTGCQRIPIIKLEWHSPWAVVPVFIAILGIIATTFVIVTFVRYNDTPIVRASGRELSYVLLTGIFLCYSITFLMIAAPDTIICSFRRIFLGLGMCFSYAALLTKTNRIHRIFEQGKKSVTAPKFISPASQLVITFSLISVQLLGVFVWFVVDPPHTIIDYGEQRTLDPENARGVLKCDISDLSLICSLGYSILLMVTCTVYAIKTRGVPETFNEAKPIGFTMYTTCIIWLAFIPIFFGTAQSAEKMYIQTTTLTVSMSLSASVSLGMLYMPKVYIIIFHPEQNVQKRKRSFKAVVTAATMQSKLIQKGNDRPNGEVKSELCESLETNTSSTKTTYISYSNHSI
In the case of `CC1(C)NC(=O)N(CC(O)CN2C(=O)CCC2=O)C1=O` (centres undefined), the z-score is reported as -0.543.
Compound `CCn1c(CNC(=O)c2ccc(OC)c(OC)c2)nnc1SCC(=O)c1ccc(OC)cc1` has a z-score of -0.228.
`Cc1ccccc1Cn1nc(C)c(NC(=O)c2noc3c2CCCC3)c1C` gave a z-score of -0.0577.
`Cc1ccc(C(=O)Nc2c(-c3cccs3)c(=O)c3ccccc3n2C)cc1` gave a z-score of 0.325.
Work on `Cc1nnc(C)n1/N=C/c1cccn1C` yielded a z-score of 0.353.
Compound `c1ccc(CSc2nncn2-c2ccccn2)cc1` has a z-score of -0.159.
In the case of `COc1c(Cl)cc(Cl)cc1/C=C/C(=O)c1ccc(NC(=O)c2cccs2)cc1`, the z-score is reported as -0.0704.
`O=C(Nc1ccc2c(c1)OCCO2)c1ccc(Br)s1` was tested, and the z-score was 0.348.
In the case of `COCCn1c(C)cc(C(=O)CN2C(=O)NC3(CCCCCCC3)C2=O)c1C`, the z-score is reported as 0.319.
`CCC(=O)N1c2ccc(S(=O)(=O)CCC(=O)NCc3cccs3)cc2CC1C` (centres undefined) was tested, and the z-score was -0.317.
With `O=C(O)CCCNC(=O)c1cncc(Br)c1` the z-score was 1.28.
In the case of `O=S(=O)(c1ccccc1)c1nc(-c2ccccc2)oc1N1CCCCC1`, the z-score is reported as -0.0433.
`Cc1nn(Cc2ccc(Cl)cc2)c(C)c1NC(=O)CCCn1nc(C)c([N+](=O)[O-])c1C` was tested, and the z-score was -0.321.
Work on `O=C(Cn1c(=O)oc2cc(S(=O)(=O)N3CCOCC3)ccc21)N1CCc2ccccc2C1` yielded a z-score of -0.376.
Compound `COc1ccc(-n2nc3c(c2NC(=O)C2CCCC2)CS(=O)C3)cc1` (centres undefined) has a z-score of -0.284.
`CC1(C)Cc2ccccc2-c2nnc(-c3ccco3)n21` was tested, and the z-score was -1.09.
For `CCOC(=O)C1=C(c2cccc(F)c2)NC(=S)NC1C` (centres undefined), the z-score was -0.0733.
With `Cc1c(NC(=O)c2cccc(-c3cc4ccccc4oc3=O)c2)cccc1-c1nc2ncccc2o1` the z-score was -0.129.
With `Cc1ccc(-n2[nH]c(C)c(C=Nc3ccc(S(=O)(=O)Nc4nc(C)cc(C)n4)cc3)c2=O)c(C)c1` the z-score was -0.0925.
With `O=C(Nc1scc(-c2cccs2)c1C(=O)O)c1cccs1` the z-score was 1.01.
`COc1ccc(C(=O)CN2C(=O)c3ccccc3C2=O)c(OC)c1C` showed a z-score of -0.207.
Work on `CCCn1cnc2c(sc3nc4c(cc32)CSC(C)(C)C4)c1=O` yielded a z-score of -0.0716.
`CCOC(=O)c1[nH]cnc1C(=O)Nc1ccccn1` showed a z-score of 0.109.
With `COC(=O)c1sccc1-n1cccc1C(=O)N1CCOCC1` the z-score was 0.0627.
Work on `O=C(/N=C1/c2ccccc2CN1c1ccccc1)Nc1ccccc1` yielded a z-score of -0.236.
For `C=CCn1c(SCCCC)nc(O)cc1=O`, the z-score was -0.421.
For `NC(CSC12CC3CC(CC(C3)C1)C2)C(=O)O` (centres undefined), the z-score was 0.309.
Work on `O=[N+]([O-])c1cc(F)c(N2CCOCC2)cc1N1CCCCC1` yielded a z-score of -0.604.
`Cc1cccc(NC(=O)Cn2c(/C=C/c3ccccc3)nc3ccccc32)c1` showed a z-score of -0.725.
`CC1=CS/C(=C(/C#N)C(=O)N2CCOCC2)N1c1ccccc1` showed a z-score of 0.337.
`CCc1ccc(-n2nnnc2SCC(=O)NNC(=O)c2ccco2)cc1` gave a z-score of 0.103.
`CCOC(=O)CCCNC(=O)COC(=O)c1cc(C)cc(C)c1` gave a z-score of -0.00701.
With `COC(=O)c1ccccc1NC(=O)C1CCCN(S(C)(=O)=O)C1` (centres undefined) the z-score was 0.0683.
Work on `O=C(COC(=O)/C=C/c1ccccc1)Nc1cc(C(F)(F)F)ccc1N1CCOCC1` yielded a z-score of -0.0626.
`COc1cc(OC)c(C2N(c3ccccn3)C(=O)C3CCCN32)cc1OC` (centres undefined) gave a z-score of 0.314.
Work on `COc1cccc(NC(=O)C2c3cc(OC)c(OC)cc3C(=O)N(C)C2c2cccnc2)c1` (centres undefined) yielded a z-score of -0.0359.
With `CS(=O)(=O)N1CCc2cc(-c3csc(NC(=O)C(c4ccccc4)c4ccccc4)n3)ccc21` the z-score was 0.0668.
`CCN(C(=O)COC(=O)c1n[nH]c2ccccc12)C1CCS(=O)(=O)C1` (centres undefined) was tested, and the z-score was -0.0797.
`CCCc1cc(-c2n[nH]c(C(=O)OCC)c2-c2cscn2)c(O)cc1O` showed a z-score of -0.373.
For `COc1ccc(-c2nnc(NC(=O)C(C)C)o2)cc1`, the z-score was 2.14.
`COc1ccc(C(CCNCc2ccccc2)c2ccc(F)cc2)cc1` (centres undefined) showed a z-score of 1.8.
With `COc1cc(C(=O)N2CCN(c3cc(Cl)ccc3Cl)CC2)cc(OC)c1OC` the z-score was -0.5.
`O=C1CC(N(CCc2ccccc2)C(=S)Nc2ccccc2)C(=O)N1c1ccccc1` (centres undefined) showed a z-score of 0.57.
Compound `CC1(C)CC2(CC(C)(C(=O)CSc3nc4ccccc4s3)OC2=O)C(=O)O1` (centres undefined) has a z-score of 0.026.
`O=C(NCc1nc2ccccc2[nH]1)c1cccc(S(=O)(=O)N2CCCC2)c1` was tested, and the z-score was 2.4.
Compound `CCCNc1ncnc2sc(C)c(C)c12` has a z-score of -1.21.
`COc1ccc(/C=C/C(=O)Oc2ccc(/C=N/NC(=O)COc3c(C)cccc3C)cc2)cc1` showed a z-score of -1.68.
With `Cn1cccc1C(=O)NS(=O)(=O)c1ccccc1Cl` the z-score was 0.983.
In the case of `O=C(Nc1cccc(C(F)(F)F)c1)c1cc(-c2cccs2)on1`, the z-score is reported as -0.52.
With `CC(C)CC1N=C2c3ccccc3N=C(SCc3cc(=O)n4ccccc4n3)N2C1=O` (centres undefined) the z-score was -0.382.
With `Cn1nc(C(=O)NC2CCCCCC2)ccc1=O` the z-score was 1.32.
Work on `CCNC(=S)Nc1cccc(Cl)c1C` yielded a z-score of 0.0976.
With `C/C(=N/NC(=O)C1CCN(S(=O)(=O)c2ccc(C)cc2)CC1)c1cccc([N+](=O)[O-])c1` the z-score was -0.0465.
`Cc1ccc(N(C(=O)Cc2c[nH]c3ccccc23)C(C(=O)NC2CCCCC2)c2ccco2)cc1` (centres undefined) gave a z-score of -0.0196.
For `CCCCSc1nnc(CSc2nc3nc(C)cc(C)n3n2)o1`, the z-score was -0.473.
Compound `CC(C)CCNC(=O)[C@@H](NC(=O)c1c(F)cccc1F)C(C)C` has a z-score of -0.0578.
Work on `CCN(CC)C(=O)CCNS(=O)(=O)c1ccc(C)cc1` yielded a z-score of 0.0788.
`CCOC(=O)c1c(C)[nH]c(C2=NNC(=Nc3ccccc3)SC2)c1C` showed a z-score of 0.0151.
Compound `C=CCNc1nc(Nc2ccc(-c3nc4ccccc4o3)cc2)nc(N2CCOCC2)n1` has a z-score of 0.132.
For `CC(Oc1ccc(Cl)cc1Cl)C(=O)NCc1ccncc1` (centres undefined), the z-score was -0.474.
In the case of `c1ccc2c(c1)oc1c(Nc3ccc4c(c3)OCCO4)ncnc12`, the z-score is reported as -0.257.
`O=C(COc1ccc(S(=O)(=O)N2CCCCC2)cc1)NCc1cccnc1` gave a z-score of 0.103.
For `COc1cccc(C2/C(=C(\O)c3ccc4c(c3)OCCO4)C(=O)C(=O)N2CCN(C)C)c1` (centres undefined), the z-score was 0.625.
For `CC(OC(=O)C1CCC(=O)N1)C(=O)Nc1cc(Cl)cc(Cl)c1` (centres undefined), the z-score was -0.0373.
`Cn1c(=O)c2c(nc(Br)n2CCSc2nc3ccccc3o2)n(C)c1=O` was tested, and the z-score was -0.0753.
`O=C(Oc1ccccc1N1C(=O)C2CCCCC2C1=O)c1ccccc1F` (centres undefined) gave a z-score of -0.195.
For `CCCCCn1nc(C)c(/C=N\NC(=O)c2cc(C)oc2C)c1C`, the z-score was -0.235.
Compound `CCn1c(CSc2nc3ccccc3s2)nc2ccccc21` has a z-score of -0.855.
For `Cc1ccccc1N(C(=O)Cn1nnc(-c2cccs2)n1)C(C(=O)NCCC(C)C)c1ccco1` (centres undefined), the z-score was -1.03.
